Sequences with one replicate were seen in a single cluster, so their values are uncertain.
System: ATP
Experiment: switch fluorescence ratio, 500 uM ATP over buffer (Cy3 cluster intensity, sum of 5 cycles each) (fold (ratio)); higher = stronger signal-on switching upon ATP binding; sequences stand for … in TCGTCGGCAGCGTCAGATGTGTATAAGAGACAGTTTTTTTTTTTTTTTTTTTTTTTTT…TC
Details: aptamer strand: ATP DNA aptamer (quencher-CACCTGGGGGAGTATTGCGGAGGAAGG + anchor), 100 nM annealed; ATP concentration: 500 uM; one replicate
Summary of the method: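 Per cluster, summed Cy3 intensity from the target cycles was divided by that from the buffer cycles to give the fluorescence ratio, then averaged per switch-domain sequence. Clusters outside 100-1000 RFU were excluded. The Cy3-labelled switching-strand clusters, on a modified Illumina MiSeq flow-cell, were annealed to 100 nM quencher-labelled ATP aptamer and imaged in selection buffer, then after 15 min with 500 uM ATP at 22 °C, for five cycles with NaOH stripping and re-annealing between them.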
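Note: ATP exposure 15 min at 22 °C before imaging.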

CACGATTCTA
switch fluorescence ratio: 1.01

CTTATCACCC
switch fluorescence ratio: 0.974

ACGAACGGTG
switch fluorescence ratio: 1.48

TCTTATGTTT
switch fluorescence ratio: 0.969

TAAACCGCTC
switch fluorescence ratio: 1.98

TCGTAGTTGG
switch fluorescence ratio: 0.984

CGTAGATGGG
switch fluorescence ratio: 0.98

AATTGCTCAC
switch fluorescence ratio: 1.05

TTGCGTATTA
switch fluorescence ratio: 1.01

AAGTCTTGAG
switch fluorescence ratio: 0.993

AATCGTTAGA
switch fluorescence ratio: 0.987

CAGCAGCATC
switch fluorescence ratio: 3.43

ACCTAGGGC
switch fluorescence ratio: 1.02

GGGCCGCAGC
switch fluorescence ratio: 1.15

TTGTTGATAA
switch fluorescence ratio: 0.915

ACCGAAAGGA
switch fluorescence ratio: 0.989

CCTTCGTTAG
switch fluorescence ratio: 3.09

ACTGTTGTAT
switch fluorescence ratio: 0.911

CAGCATTCTC
switch fluorescence ratio: 2.68

AACCTACTGG
switch fluorescence ratio: 1.04

TTCAGTCATG
switch fluorescence ratio: 0.992

GTTATCCGC
switch fluorescence ratio: 1.17

GCATGAAGG
switch fluorescence ratio: 0.999

TCGAGGGTGT
switch fluorescence ratio: 1.07

GGGAACGAAG
switch fluorescence ratio: 0.943

AGGATGGAAA
switch fluorescence ratio: 1.01

ATCGTGCAGC
switch fluorescence ratio: 0.992

GCGGGGTCCT
switch fluorescence ratio: 1.02

AATGGACTGA
switch fluorescence ratio: 1.05

GGTCTTTTCC
switch fluorescence ratio: 0.971

GCGTCTGAGT
switch fluorescence ratio: 1.01

TTGTGTTGCT
switch fluorescence ratio: 0.981

GCTCGGCTGT
switch fluorescence ratio: 1.08

CGTTATTATG
switch fluorescence ratio: 0.991

TCTCTAGTTT
switch fluorescence ratio: 1.01

AGAAAACTAC
switch fluorescence ratio: 1.04

AATTTAATG
switch fluorescence ratio: 0.988

TTTACACGAC
switch fluorescence ratio: 1.16

AGGAAATCTT
switch fluorescence ratio: 1.05

CGGACTAGGA
switch fluorescence ratio: 1

ACAAGGATC
switch fluorescence ratio: 0.997

GTCGTGATTT
switch fluorescence ratio: 1.11

TGGTTTGCAT
switch fluorescence ratio: 1.02

GTAAAAGGTG
switch fluorescence ratio: 1.22

ATGTTTGACC
switch fluorescence ratio: 0.995

GGGGGTCGTC
switch fluorescence ratio: 0.955

GGGCTCCAAG
switch fluorescence ratio: 1.04

CAGGAACGAA
switch fluorescence ratio: 1.01

GCGCAAATTC
switch fluorescence ratio: 1.09

GGCTGCACTT
switch fluorescence ratio: 1.22

ATTTTTTCTA
switch fluorescence ratio: 1.03

CTCGTACAGT
switch fluorescence ratio: 1.01

CTCAGCGGCC
switch fluorescence ratio: 1.72

CTCAATGATT
switch fluorescence ratio: 1

GAAATAGAA
switch fluorescence ratio: 0.977

CGGATCGCCG
switch fluorescence ratio: 0.895

CACATCAGAG
switch fluorescence ratio: 1.03

CGTCCAGAA
switch fluorescence ratio: 1.02

GCAGACCGAC
switch fluorescence ratio: 1.83

TATACCGATA
switch fluorescence ratio: 1.05

GAAGCTAGGT
switch fluorescence ratio: 1.06

TGATGATAAT
switch fluorescence ratio: 0.926

ACTTCATCGA
switch fluorescence ratio: 1.02

GTAGTCCAAT
switch fluorescence ratio: 1.01

GTAGGTTGGG
switch fluorescence ratio: 0.991

GAATCAAATG
switch fluorescence ratio: 0.993

AAGAGTGCTT
switch fluorescence ratio: 1.01

GTGAATGCGC
switch fluorescence ratio: 1.02

GCGGGGAGGC
switch fluorescence ratio: 1

CTTAGTCTAC
switch fluorescence ratio: 1.07

CACGAGTGCG
switch fluorescence ratio: 1

GATCGAGTAC
switch fluorescence ratio: 0.965

CGCACGTTCA
switch fluorescence ratio: 0.999

CAGCTAAGTC
switch fluorescence ratio: 1.01

ACTGGTACCA
switch fluorescence ratio: 1.02

CTAAGAATTC
switch fluorescence ratio: 0.957

TGGCAACGCA
switch fluorescence ratio: 0.972

ATTGGCCCCC
switch fluorescence ratio: 1.12

TGAAGACGAA
switch fluorescence ratio: 1.02

TGTAGGATAT
switch fluorescence ratio: 1.26

AAACTGGCGA
switch fluorescence ratio: 0.954

ACAGCAAACA
switch fluorescence ratio: 1.17

AGAGCCACGG
switch fluorescence ratio: 1.04

TTGTTCTCGA
switch fluorescence ratio: 1.02

AATTGAGAGT
switch fluorescence ratio: 0.993

CATTCCTCGT
switch fluorescence ratio: 1.44

AGCTGTTTGC
switch fluorescence ratio: 1.04

GGTCAAAACA
switch fluorescence ratio: 1.03

CGACCCTCGC
switch fluorescence ratio: 1.18

CTGCGCTCTC
switch fluorescence ratio: 2.28

ATCTGCCGAG
switch fluorescence ratio: 1.05

GGCCCTTAGG
switch fluorescence ratio: 0.927

GAATATGACT
switch fluorescence ratio: 1.04

TGGGTACGTT
switch fluorescence ratio: 0.944

CCAACCTTTT
switch fluorescence ratio: 1.03

ACAATTTCCT
switch fluorescence ratio: 1.08

ATCGCCACTG
switch fluorescence ratio: 1.07

CCAGGGCCGT
switch fluorescence ratio: 1.06

GAGTCAAAGG
switch fluorescence ratio: 1

GAAAGGGCCT
switch fluorescence ratio: 0.947

GGATCAGTTA
switch fluorescence ratio: 0.982

GCTATAACTG
switch fluorescence ratio: 1.04

AGTCCATTTC
switch fluorescence ratio: 0.988

TCGTCAAACG
switch fluorescence ratio: 0.943

TCTCCCTTAG
switch fluorescence ratio: 1.31

CAATAGCTGT
switch fluorescence ratio: 1

TCTATAGAGT
switch fluorescence ratio: 1.03

CCGGGCTGAG
switch fluorescence ratio: 1.11

AACGAGGTTT
switch fluorescence ratio: 0.992

TGTCACGAC
switch fluorescence ratio: 1.08

ACACTGCTTC
switch fluorescence ratio: 1.07

TCGTACATTC
switch fluorescence ratio: 1.06

TAGAGTCTTG
switch fluorescence ratio: 1.02

AGACTAAATA
switch fluorescence ratio: 0.954

GAAGAGAATT
switch fluorescence ratio: 1.01

TAATGGCTGG
switch fluorescence ratio: 1.01

TGGGCCATTC
switch fluorescence ratio: 1.01

CATAGGACAT
switch fluorescence ratio: 0.968

ATTGTCCTTC
switch fluorescence ratio: 1.05

CAGGATAATA
switch fluorescence ratio: 1.01

ATTGTCATCC
switch fluorescence ratio: 0.989

CATTTGGGAG
switch fluorescence ratio: 1.03

CTCCTGTATC
switch fluorescence ratio: 1.72

AATTATAGGG
switch fluorescence ratio: 0.968

GCCTGAAATG
switch fluorescence ratio: 0.973

ACCCTCGTCC
switch fluorescence ratio: 1.13

TGCTACGTGG
switch fluorescence ratio: 1.01

TATCTGTGTG
switch fluorescence ratio: 0.972

ACCGCGTGTT
switch fluorescence ratio: 1.06

AGTCAATCA
switch fluorescence ratio: 0.995

TACCGGAGTC
switch fluorescence ratio: 1.19

AGACCGAACA
switch fluorescence ratio: 1.15

GAGGGCAGGC
switch fluorescence ratio: 0.65

GCCTTCGTTT
switch fluorescence ratio: 0.976

ATGTACCGGA
switch fluorescence ratio: 0.999

GATTGGGAAG
switch fluorescence ratio: 0.996

TAGTTCTTT
switch fluorescence ratio: 0.95

CGTAGCCTCG
switch fluorescence ratio: 0.98

AGAAGCATGG
switch fluorescence ratio: 0.983

TGGTTTAAG
switch fluorescence ratio: 1.02

TTCGTGAGGC
switch fluorescence ratio: 1.03

ATGCGGGTGT
switch fluorescence ratio: 1.01

GCTGCAGGCC
switch fluorescence ratio: 1.03

GCACTTTGGG
switch fluorescence ratio: 0.942

TACCATACAG
switch fluorescence ratio: 1.28

ACAGACTTGG
switch fluorescence ratio: 1.01

ACCCCCCTTA
switch fluorescence ratio: 1.21

TTAGCGCTAA
switch fluorescence ratio: 1.02

CGAGAGGTTT
switch fluorescence ratio: 0.972

CCTAGGTGCT
switch fluorescence ratio: 4.15

GTGACCCAAC
switch fluorescence ratio: 1.05

TCAATGCAAA
switch fluorescence ratio: 0.996

GCGCATATCG
switch fluorescence ratio: 1.1

ATTTCGGGCC
switch fluorescence ratio: 1.02

ATAGGCGGCC
switch fluorescence ratio: 1.03

CCAGCAACTG
switch fluorescence ratio: 1.24

GTCGATAGAA
switch fluorescence ratio: 0.995

ATGAATTAT
switch fluorescence ratio: 1

CCACAGAGGT
switch fluorescence ratio: 1.07

GATAGCGGGG
switch fluorescence ratio: 0.967

TTTTAGAGGC
switch fluorescence ratio: 1.01

GATACTCTGT
switch fluorescence ratio: 1.03

ACAAGGAGCC
switch fluorescence ratio: 1.05

TTTGACTCA
switch fluorescence ratio: 1.01

TCGCTCCGCG
switch fluorescence ratio: 1.21

TACCCGTGGG
switch fluorescence ratio: 1.02

CTGGTATCTC
switch fluorescence ratio: 1.04

TGGGACGAGC
switch fluorescence ratio: 1.03

GGGCTCGATA
switch fluorescence ratio: 1

GTGGTATCGC
switch fluorescence ratio: 1

TTTGAGACAA
switch fluorescence ratio: 1.1

CCGCGGGCCT
switch fluorescence ratio: 1.16

CTCCACTTGT
switch fluorescence ratio: 1.05

GTAATTGCCA
switch fluorescence ratio: 0.973

GGCACTTTTG
switch fluorescence ratio: 0.987

TGTTGGGGCC
switch fluorescence ratio: 1.07

ATCTCAAGTG
switch fluorescence ratio: 0.964

GACGGTGTGG
switch fluorescence ratio: 1.03

CCAACGTGCA
switch fluorescence ratio: 1.28

TGTTATAAGG
switch fluorescence ratio: 1.01

TGGCATCTCA
switch fluorescence ratio: 1.03

GCGTCATGGC
switch fluorescence ratio: 1.02

TATACTAGCC
switch fluorescence ratio: 1.01

CGGAATGGG
switch fluorescence ratio: 1

GCCCTGAGGG
switch fluorescence ratio: 1.01

AATGGCTGAA
switch fluorescence ratio: 0.98

TCGGCCCTTA
switch fluorescence ratio: 1.03

ACTCTGCCGC
switch fluorescence ratio: 1.78

GGATTACTAT
switch fluorescence ratio: 0.97

CGGCCCACGG
switch fluorescence ratio: 1.07

GGGATTTAAC
switch fluorescence ratio: 1.03

CTTCATTACA
switch fluorescence ratio: 1.03

TGATTGTCAC
switch fluorescence ratio: 1.01

TTTAAATCAG
switch fluorescence ratio: 0.991

TTTCACGTAC
switch fluorescence ratio: 1.77

AACCGCCCTA
switch fluorescence ratio: 1.32

TTTCCGCTGG
switch fluorescence ratio: 1.36

GTTCCCTGTT
switch fluorescence ratio: 0.965

GTTTCCTATA
switch fluorescence ratio: 0.972

TCGCGAGGCG
switch fluorescence ratio: 1.01

Source: the supplement of paper PMC10126150
